From PubChem BioAssay AID1963985 (Molecular Pharmacology Branch, DTP, NCI, 2024)
For part of its entries the source gives two or more results. This list holds those alone. The source may hold further records. Values given together repeat one measurement across runs, samples, wells, individuals or studies. Each block holds one compound with its values, some of them ahead of it.

Tested on: 252836-082-R-J2-PDC tumor spheroids, viability
Assay: Anticancer human tumor 252836-082-R-J2-PDC patient-derived head and neck squamous cell carcinoma cell line growth inhibition [PI3K]
Conditions: spheroids with HUVEC and MSC; for IC50: compound alone; for viability, T/C: stronger effect = lower value
Excerpt: Combinatorial screen of targeted agents with the PI3K inhibitors inavolisib, alpelisib, duvelisib, and copanlisib in multi-cell type tumor spheroids
A high-throughput screen of multi-cell type tumor spheroids was designed to identify active combinations of targeted small molecules and PI3K pathway inhibitors. Complex spheroids include a stromal component modeled by human endothelial cells (HUVEC) and fibroblasts modeled by human mesenchymal stem cells (MSCs). The concentration ranges selected for each drug and investigational agent were based upon clinically achievable concentrations if the clinical Cmax of the agent was known.
Compounds. The drugs and investigational agents: inavolisib (NSC800729), alpelisib (NSC765974), duvelisib (NSC772469), copanlisib (NSC816437), ipatasertib (NSC767898), afuresertib (NSC778305), talazoparib (NSC767125), sapanisertib (NSC764658), selumetinib (NSC741078), tovorafenib (DAY101, NSC766906), vemurafenib (NSC761431), ravoxertinib (NSC781343), sotorasib (NSC818433), MRTX1133 (NSC 836407), abemaciclib (NSC 768073), palbociclib (NSC758247), venetoclax (NSC 766270), SY5609 (NSC837396), enzalutamide (NSC755605), and darolutamide (NSC825331), were obtained from the National Cancer Institute (NCI) Developmental Therapeutics Program Chemical Repository. The FDA-approved anticancer drug set is available from the NCI Developmental Therapeutics Program. […] The stock solutions were prepared in dimethyl sulfoxide (DMSO, Sigma-Aldrich, St. Louis, MO, cat. D2650) at 800-fold the tested concentration and stored at -70 degrees C prior to their use. All drugs and investigational agents were tested over a range starting from a high concentration at or near the clinical Cmax and decreasing in half-log increments. If the clinical Cmax for an agent had not been determined, the highest concentration tested was 10 microM.
Cell Culture. All cells were maintained in an incubator at 37 degrees C and 5% CO2 with 95% humidity. The PDC lines were cultured according to standard operating procedures established by the NCI PDMR (https://pdmr.cancer.gov/sops/default.htm). All PDCs were thawed and cultured in Matrigel-coated flasks prepared with a working solution of 1X Ham's F-12 nutrient mix, without supplementation (Invitrogen, Waltham, MA, cat. 11765054), 100 U/mL penicillin-streptomycin (Invitrogen, cat. 15140122), and 2.5% Matrigel (Corning Inc., Corning, NY, cat. 354248) for the first three passages. The 354836-022-R-J1-PDC, 475296-252-R-J1-PDC, and 997726-040-R-J2-PDC lines were cultured in 6A media, which includes advanced DMEM/F-12 (Thermo Fisher Scientific, cat. 12634028), 10 mM HEPES (Thermo Fisher Scientific, cat. 15630080), 1X GlutaMAX supplement (Thermo Fisher Scientific, cat. 35050061), 0.1 mg/mL primocin (InvivoGen, San Diego, CA, cat. ant-pm-2), 10% defined fetal bovine serum, heat inactivated (HyClone Laboratories Inc., Logan, UT, cat. SH30070.03HI), 50% L-WRN conditioned media (ATCC, cat. CRL-3276), 1.25 mM N-Acetyl-L-cysteine (Sigma-Aldrich, cat. A9165), 10 mM nicotinamide (Sigma-Aldrich, cat. N0636), 1X B-27 supplement (Thermo Fisher Scientific, cat. 17504044), 1X N-2 supplement (Thermo Fisher Scientific, cat. 17502048), and 10 microM Y-27632 dihydrochloride (Tocris Bioscience, Bristol, United Kingdom, cat. 1254). The 624824-186-R-J2-PDC line was cultured in 6C/Colon 1B media, which includes all 6A media components plus 50 ng/mL human EGF recombinant protein (Thermo Fisher Scientific, cat. PHG0311). […]
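Also: spheroids exposed to agents for seven days before readout.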
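For viability, T/C in this document: percent of vehicle DMSO control viability so 100% = untreated growth.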

IC50: 2.95 µM, > 3 µM, 2.52 µM, 2.47 µM
SMILES: Cn1cnc2c(F)c(Nc3ccc(Br)cc3Cl)c(C(=O)NOCCO)cc21

SMILES: CNC(=O)c1ccc(N2C(=S)N(c3ccc(C#N)c(C(F)(F)F)c3)C(=O)C2(C)C)cc1F
viability, T/C (compound alone 0.0316 µM): 89, 118, 97.5, 95.6%

SMILES: CCN1CCN(Cc2ccc(Nc3ncc(F)c(-c4cc(F)c5nc(C)n(C(C)C)c5c4)n3)nc2)CC1
viability, T/C (compound alone 1 µM): 87.8, 83.9, 111, 85.5%

SMILES: CC(Nc1ccc2c(c1)OCCn1cc(N3C(=O)OCC3C(F)F)nc1-2)C(N)=O (stereo not given)
IC50 (run of 06/12/2023): 367 nM, > 1 µM, 490 nM, 595 nM, 633 nM, 323 nM, 364 nM

SMILES: CCCS(=O)(=O)Nc1ccc(F)c(C(=O)c2c[nH]c3ncc(-c4ccc(Cl)cc4)cc23)c1F
viability, T/C (compound alone 0.1 µM): 102, 105, 83.6, 111%
viability, T/C (compound alone 0.316 µM): 93.7, 84.5, 111, 107%

IC50: 5.64 µM, 5.96 µM, > 10 µM, 5.83 µM
SMILES: CC1(C)CCC(CN2CCN(c3ccc(C(=O)NS(=O)(=O)c4ccc(NCC5CCOCC5)c([N+](=O)[O-])c4)c(Oc4cnc5[nH]ccc5c4)c3)CC2)=C(c2ccc(Cl)cc2)C1
viability, T/C (compound alone 3.16 µM): 109, 101, 79.7, 87%
viability, T/C (compound alone 10 µM): 2.49, 8.54, 90.5, 17.4%

SMILES: C=CC(=O)N1CCN(c2nc(=O)n(-c3c(C)ccnc3C(C)C)c3nc(-c4c(O)cccc4F)c(F)cc23)C(C)C1 (stereo not given)
viability, T/C (compound alone 0.316 µM): 125, 102, 93.4, 98.9%
viability, T/C (compound alone 1 µM): 118, 92.6, 99.1, 94.5%
viability, T/C (compound alone 3.16 µM): 97.9, 117, 131, 113%

SMILES: C#Cc1c(F)ccc2cc(O)cc(-c3ncc4c(N5CC6CCC(C5)N6)nc(OCC56CCCN5CC(F)C6)nc4c3F)c12 (stereo not given)
viability, T/C (compound alone 0.1 µM): 115, 71.9, 95.1, 89.6%
viability, T/C (compound alone 0.316 µM): 79.5, 81, 94.5, 105%

SMILES: CC(Nc1ncnc2nc[nH]c12)c1cc2cccc(Cl)c2c(=O)n1-c1ccccc1 (stereo not given)
viability, T/C (compound alone 1 µM): 90.3, 86.7, 92.6, 102, 114, 80.7, 107, 89.5%
